The list shows a part of the results.
What was measured:
Test in all cases: glycan array binding signal (z-score within array); higher = stronger binding
Conditions in all cases: glycan notation: IUPAC condensed, linker removed
[1] = biological target: Neu5Ac(a2-3)Gal(b1-4)GlcNAc(b1-3)[Neu5Ac(a2-3)Gal(b1-4)GlcNAc(b1-6)]GalNAc
Summary of the method: (§1)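 Glycan array binding is given as a within-array Z-score, which can be read as non-binding when negative. The arrays, 3228 of them, came from the Consortium for Functional Glycomics database and were retained only where the protein sequence was available. Z-scores were averaged across arrays of the same protein sequence at different concentrations or buffers and across linkers.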

[2] = biological target: Neu5Ac(a2-3)Gal(b1-4)GlcNAc(b1-6)GalNAc
Summary of the method: as §1

[3] = biological target: Neu5Ac(a2-3)Gal(b1-4)GlcNAc(b1-6)[Gal(b1-3)]GalNAc
Summary of the method: as §1

[4] = biological target: Neu5Ac(a2-3)Gal(b1-4)GlcNAc(b1-6)[Neu5Ac(a2-3)Gal(b1-3)]GalNAc
Summary of the method: as §1

[5] = biological target: Neu5Ac(a2-3)Gal(b1-4)GlcNAc6S
Summary of the method: as §1

[6] = biological target: Neu5Ac(a2-3)Gal(b1-4)[Fuc(a1-3)]GlcNAc
Summary of the method: as §1

[7] = biological target: Neu5Ac(a2-3)Gal(b1-4)[Fuc(a1-3)]GlcNAc(b1-2)Man
Summary of the method: as §1

[8] = biological target: Neu5Ac(a2-3)Gal(b1-4)[Fuc(a1-3)]GlcNAc(b1-3)Gal
Summary of the method: as §1

[9] = biological target: Neu5Ac(a2-3)Gal(b1-4)[Fuc(a1-3)]GlcNAc(b1-3)Gal(b1-4)GlcNAc
Summary of the method: as §1

[10] = biological target: Neu5Ac(a2-3)Gal(b1-4)[Fuc(a1-3)]GlcNAc(b1-3)Gal(b1-4)[Fuc(a1-3)]GlcNAc(b1-3)Gal(b1-4)[Fuc(a1-3)]GlcNAc
Summary of the method: as §1

[11] = biological target: Neu5Ac(a2-3)Gal(b1-4)[Fuc(a1-3)]GlcNAc(b1-3)GalNAc
Summary of the method: as §1

[12] = biological target: Neu5Ac(a2-3)Gal(b1-4)[Fuc(a1-3)]GlcNAc(b1-6)[Gal(b1-3)]GalNAc
Summary of the method: as §1

[13] = biological target: Neu5Ac(a2-3)Gal(b1-4)[Fuc(a1-3)]GlcNAc(b1-6)[Neu5Ac(a2-3)Gal(b1-3)]GalNAc
Summary of the method: as §1

[14] = biological target: Neu5Ac(a2-3)Gal(b1-4)[Fuc(a1-3)]GlcNAc6S
Summary of the method: as §1

[15] = biological target: Neu5Ac(a2-3)Gal6S(b1-4)GlcNAc
Summary of the method: as §1

[16] = biological target: Neu5Ac(a2-3)Gal6S(b1-4)[Fuc(a1-3)]GlcNAc
Summary of the method: as §1

Neu5Ac(a2-3)GalNAc = biological target: Neu5Ac(a2-3)GalNAc
Summary of the method: as §1

[17] = biological target: Neu5Ac(a2-3)GalNAc(b1-4)GlcNAc
Summary of the method: as §1

[18] = biological target: Neu5Ac(a2-3)[GalNAc(b1-4)]Gal(b1-4)Glc
Summary of the method: as §1

[19] = biological target: Neu5Ac(a2-3)[GalNAc(b1-4)]Gal(b1-4)GlcNAc
Summary of the method: as §1

[20] = biological target: Neu5Ac(a2-3)[GalNAc(b1-4)]Gal(b1-4)GlcNAc(b1-3)GalNAc
Summary of the method: as §1

[21] = biological target: Neu5Ac(a2-3)[Neu5Ac(a2-6)]GalNAc
Summary of the method: as §1

Neu5Ac(a2-6)Gal = biological target: Neu5Ac(a2-6)Gal
Summary of the method: as §1

[22] = biological target: Neu5Ac(a2-6)Gal(b1-3)GlcNAc(b1-3)[Gal(b1-4)GlcNAc(b1-6)]Gal(b1-4)Glc
Summary of the method: as §1

Neu5Ac(a2-6)Gal(b1-4)Glc = biological target: Neu5Ac(a2-6)Gal(b1-4)Glc
Summary of the method: as §1

[23] = biological target: Neu5Ac(a2-6)Gal(b1-4)GlcNAc
Summary of the method: as §1

[24] = biological target: Neu5Ac(a2-6)Gal(b1-4)GlcNAc(b1-2)Man
Summary of the method: as §1

[25] = biological target: Neu5Ac(a2-6)Gal(b1-4)GlcNAc(b1-2)Man(a1-3)Man(b1-4)GlcNAc(b1-4)GlcNAc
Summary of the method: as §1

[26] = biological target: Neu5Ac(a2-6)Gal(b1-4)GlcNAc(b1-2)Man(a1-3)[Gal(b1-4)GlcNAc(b1-2)Man(a1-6)]Man(b1-4)GlcNAc(b1-4)GlcNAc
Summary of the method: as §1

[27] = biological target: Neu5Ac(a2-6)Gal(b1-4)GlcNAc(b1-2)Man(a1-3)[GlcNAc(b1-4)][Neu5Ac(a2-6)Gal(b1-4)GlcNAc(b1-2)Man(a1-6)]Man(b1-4)GlcNAc(b1-4)GlcNAc
Summary of the method: as §1

B1: Di AAL2 (Agrocybe aegerita) (protein)
chain: MTSNVITQDLPIPVASRGFADIVGFGLDGVVIGRNAVNLQPFLAVKNFAQNAGGWLTTKHVRLIADTTGTGKGDIVGFGNAGVYVSVNNGKNTFADPPKMVIANFGYDAGGWRVEKHLRYLADIRKIGRADIIGFGEKGVLVSRNNGGLNFGPATLVLKDFGYDAGGWRLDRHLRFLADVTGNGHLDIVGFGDKHVFISRNNGDGTFAPAKSVIDNFCIDAGGWKIGDHPRFVADLTGDGTADIIGCGKAGCWVALNNGGGVFGQVKLVINDFGTDKGWQAAKHPRFIADLTGNGRGDVVGFGNAGVYVALNNGDGTFQSAKLVLKDFGVQQGWTVSKHRRFVVDLTGDGCADIIGFGEKETLVSYNDGKGNFGPVKALTNDFSFSGGKWAPETTVCWMANLDSSRHPAPAPMTSNVITQDLPIPVASRGFADIVGFGLDGVVIGRNAVNLQPFLAVKNFAQNAGGWLTTKHVRLIADTTGTGKGDIVGFGNAGVYVSVNNGKNTFADPPKMVIANFGYDAGGWRVEKHLRYLADIRKIGRADIIGFGEKGVLVSRNNGGLNFGPATLVLKDFGYDAGGWRLDRHLRFLADVTGNGHLDIVGFGDKHVFISRNNGDGTFAPAKSVIDNFCIDAGGWKIGDHPRFVADLTGDGTADIIGCGKAGCWVALNNGGGVFGQVKLVINDFGTDKGWQAAKHPRFIADLTGNGRGDVVGFGNAGVYVALNNGDGTFQSAKLVLKDFGVQQGWTVSKHRRFVVDLTGDGCADIIGFGEKETLVSYNDGKGNFGPVKALTNDFSFSGGKWAPETTVCWMANLDSSRH
Which results are given for B1?
glycan array binding signal (z-score) [1]: -0.145; glycan array binding signal (z-score) [2]: -0.218; glycan array binding signal (z-score) [3]: -0.257; glycan array binding signal (z-score) [4]: -0.204; glycan array binding signal (z-score) [5]: 0.088; glycan array binding signal (z-score) [6]: -0.211; glycan array binding signal (z-score) [7]: -0.258; glycan array binding signal (z-score) [8]: -0.249; glycan array binding signal (z-score) [9]: -0.168; glycan array binding signal (z-score) [10]: -0.282; glycan array binding signal (z-score) [11]: -0.309; glycan array binding signal (z-score) [12]: -0.336; glycan array binding signal (z-score) [13]: -0.307; glycan array binding signal (z-score) [14]: 0.011; glycan array binding signal (z-score) [15]: -0.006; glycan array binding signal (z-score) [16]: -0.156; glycan array binding signal (z-score) (Neu5Ac(a2-3)GalNAc): -0.281; glycan array binding signal (z-score) [17]: -0.21; glycan array binding signal (z-score) [18]: -0.292; glycan array binding signal (z-score) [19]: -0.296; glycan array binding signal (z-score) [20]: -0.285; glycan array binding signal (z-score) [21]: -0.265; glycan array binding signal (z-score) (Neu5Ac(a2-6)Gal): -0.266; glycan array binding signal (z-score) [22]: -0.328; glycan array binding signal (z-score) (Neu5Ac(a2-6)Gal(b1-4)Glc): -0.28; glycan array binding signal (z-score) [23]: -0.311; glycan array binding signal (z-score) [24]: -0.307; glycan array binding signal (z-score) [25]: -0.325; glycan array binding signal (z-score) [26]: -0.205; glycan array binding signal (z-score) [27]: -0.319

Reference: the supplement of paper PMC8728848
